Source: publication PMC9911399, “Two distinct binding modes provide the RNA-binding protein RbFox with extraordinary sequence specificity”
Substitutions are numbered along the chain they refer to; changes in the protein carry UniProt numbers. The list shows a part of the results.

B1: AAGCCCU (DNA:RNA)
RNA: GGGAGACCGGAAUUCAGAUUGUCCAAGCCCUUUAAAUCCCGUCGUAGCCACCA
DNA 1: CAATCTGAATTCCGGTCTCCC
DNA 2: TGGTGGCTACGACGGGATT
B2: GUGAAAU (DNA:RNA)
RNA: B1 RNA with A25G, A26U, C28A, C29A, C30A
DNA 1: CAATCTGAATTCCGGTCTCCC
DNA 2: TGGTGGCTACGACGGGATT
B3: GGUGAUG (DNA:RNA)
RNA: GGGAGACCGGAAUUCAGAUUGUCCGGUGAUGUUAAAUCCCGUCGUAGCCACCA
DNA 1: CAATCTGAATTCCGGTCTCCC
DNA 2: TGGTGGCTACGACGGGATT
B4: CGAUUAG (DNA:RNA)
RNA: B3 RNA with G25C, U27A, G28U, A29U, U30A
DNA 1: CAATCTGAATTCCGGTCTCCC
DNA 2: TGGTGGCTACGACGGGATT
B5: ACGAUUG (DNA:RNA)
RNA: B1 RNA with A26C, C28A, C29U, C30U, U31G
DNA 1: CAATCTGAATTCCGGTCTCCC
DNA 2: TGGTGGCTACGACGGGATT
B6: AAUGAUC (DNA:RNA)
RNA: B3 RNA with G25A, G26A, G31C
DNA 1: CAATCTGAATTCCGGTCTCCC
DNA 2: TGGTGGCTACGACGGGATT
B7: CCCUCUU (DNA:RNA)
RNA: B1 RNA with A25C, A26C, G27C, C28U, C30U
DNA 1: CAATCTGAATTCCGGTCTCCC
DNA 2: TGGTGGCTACGACGGGATT
B8: GUACAUG (DNA:RNA)
RNA: B3 RNA with G26U, U27A, G28C
DNA 1: CAATCTGAATTCCGGTCTCCC
DNA 2: TGGTGGCTACGACGGGATT
B9: GAUUUAA (DNA:RNA)
RNA: B3 RNA with G26A, G28U, A29U, U30A, G31A
DNA 1: CAATCTGAATTCCGGTCTCCC
DNA 2: TGGTGGCTACGACGGGATT
B10: UAAGUCA (DNA:RNA)
RNA: B1 RNA with A25U, G27A, C28G, C29U, U31A
DNA 1: CAATCTGAATTCCGGTCTCCC
DNA 2: TGGTGGCTACGACGGGATT
B11: GUGUAAA (DNA:RNA)
RNA: B3 RNA with G26U, U27G, G28U, U30A, G31A
DNA 1: CAATCTGAATTCCGGTCTCCC
DNA 2: TGGTGGCTACGACGGGATT
B12: UCGGGAG (DNA:RNA)
RNA: B3 RNA with G25U, G26C, U27G, A29G, U30A
DNA 1: CAATCTGAATTCCGGTCTCCC
DNA 2: TGGTGGCTACGACGGGATT
B13: GUAUCUC (DNA:RNA)
RNA: B3 RNA with G26U, U27A, G28U, A29C, G31C
DNA 1: CAATCTGAATTCCGGTCTCCC
DNA 2: TGGTGGCTACGACGGGATT
B14: AUUCAUA (DNA:RNA)
RNA: B3 RNA with G25A, G26U, G28C, G31A
DNA 1: CAATCTGAATTCCGGTCTCCC
DNA 2: TGGTGGCTACGACGGGATT
B15: UAAAGAC (DNA:RNA)
RNA: B1 RNA with A25U, G27A, C28A, C29G, C30A, U31C
DNA 1: CAATCTGAATTCCGGTCTCCC
DNA 2: TGGTGGCTACGACGGGATT
B16: AUAAUAA (DNA:RNA)
RNA: B1 RNA with A26U, G27A, C28A, C29U, C30A, U31A
DNA 1: CAATCTGAATTCCGGTCTCCC
DNA 2: TGGTGGCTACGACGGGATT
B17: UCACCUA (DNA:RNA)
RNA: B1 RNA with A25U, A26C, G27A, C30U, U31A
DNA 1: CAATCTGAATTCCGGTCTCCC
DNA 2: TGGTGGCTACGACGGGATT
B18: ACAGCAU (DNA:RNA)
RNA: B1 RNA with A26C, G27A, C28G, C30A
DNA 1: CAATCTGAATTCCGGTCTCCC
DNA 2: TGGTGGCTACGACGGGATT
B19: GCCAAGU (DNA:RNA)
RNA: B3 RNA with G26C, U27C, G28A, U30G, G31U
DNA 1: CAATCTGAATTCCGGTCTCCC
DNA 2: TGGTGGCTACGACGGGATT
B20: UUUACCC (DNA:RNA)
RNA: B1 RNA with A25U, A26U, G27U, C28A, U31C
DNA 1: CAATCTGAATTCCGGTCTCCC
DNA 2: TGGTGGCTACGACGGGATT
B21: CUUGCCA (DNA:RNA)
RNA: B1 RNA with A25C, A26U, G27U, C28G, U31A
DNA 1: CAATCTGAATTCCGGTCTCCC
DNA 2: TGGTGGCTACGACGGGATT
B22: GAACGGU (DNA:RNA)
RNA: B1 RNA with A25G, G27A, C29G, C30G
DNA 1: CAATCTGAATTCCGGTCTCCC
DNA 2: TGGTGGCTACGACGGGATT
B23: AAGUAGU (DNA:RNA)
RNA: B1 RNA with C28U, C29A, C30G
DNA 1: CAATCTGAATTCCGGTCTCCC
DNA 2: TGGTGGCTACGACGGGATT
B24: GCCAUUC (DNA:RNA)
RNA: B3 RNA with G26C, U27C, G28A, A29U, G31C
DNA 1: CAATCTGAATTCCGGTCTCCC
DNA 2: TGGTGGCTACGACGGGATT
B25: GAGAUGG (DNA:RNA)
RNA: B1 RNA with A25G, C28A, C29U, C30G, U31G
DNA 1: CAATCTGAATTCCGGTCTCCC
DNA 2: TGGTGGCTACGACGGGATT
B26: UUGCGGU (DNA:RNA)
RNA: B1 RNA with A25U, A26U, C29G, C30G
DNA 1: CAATCTGAATTCCGGTCTCCC
DNA 2: TGGTGGCTACGACGGGATT
B27: AUUUAAG (DNA:RNA)
RNA: B3 RNA with G25A, G26U, G28U, U30A
DNA 1: CAATCTGAATTCCGGTCTCCC
DNA 2: TGGTGGCTACGACGGGATT
B28: CGUAUAC (DNA:RNA)
RNA: B3 RNA with G25C, G28A, A29U, U30A, G31C
DNA 1: CAATCTGAATTCCGGTCTCCC
DNA 2: TGGTGGCTACGACGGGATT
B29: ACAUCAG (DNA:RNA)
RNA: B1 RNA with A26C, G27A, C28U, C30A, U31G
DNA 1: CAATCTGAATTCCGGTCTCCC
DNA 2: TGGTGGCTACGACGGGATT
B30: GGGUGCC (DNA:RNA)
RNA: B1 RNA with A25G, A26G, C28U, C29G, U31C
DNA 1: CAATCTGAATTCCGGTCTCCC
DNA 2: TGGTGGCTACGACGGGATT
B31: GUGCAUA (DNA:RNA)
RNA: B3 RNA with G26U, U27G, G28C, G31A
DNA 1: CAATCTGAATTCCGGTCTCCC
DNA 2: TGGTGGCTACGACGGGATT

target: T1, RBFOX1 RRM RbFoxmut (Fox-RRM*) (Homo sapiens, UniProt Q9NWB1 109-208, R118D;E147R;N151S;E152T); test: EMSA; HiTS-Eq, 1 nM pool, 10 min; buffer printed only for the single-RNA assays: 10 mM Tris pH 7.5, 150 mM NaCl, 3.4 mM EDTA, 0.001% NP-40, 30 C; details: tags: His6 N-terminal (pET28a); label: 5' 32P
T1 sequence: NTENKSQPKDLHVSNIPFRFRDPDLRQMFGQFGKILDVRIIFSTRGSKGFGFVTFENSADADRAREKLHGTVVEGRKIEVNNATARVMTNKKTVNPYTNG
Procedure, shortened: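 Purified RbFox RRM (wild type or mutant) was equilibrated for 10 min in 50 µL with 1 nM of a 5′-radiolabelled pool of RNA with 7 randomized nucleotides, its flanks annealed to DNA oligonucleotides, across increasing protein concentrations. Free RNA was separated by 8% native PAGE, excised, reverse-transcribed, PCR-barcoded and sequenced on an Illumina HiSeq 2500. Relative association constants came from read-count changes of each variant against the control reaction, normalised to the cognate motif.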

Binder | binding signal
B1 | 0.0868 KA relative to UGCAUGU
B2 | 0.086 KA relative to UGCAUGU
B3 | 0.412 KA relative to UGCAUGU
B4 | 0.0923 KA relative to UGCAUGU
B5 | 0.234 KA relative to UGCAUGU
B6 | 0.0587 KA relative to UGCAUGU
B7 | 0.0625 KA relative to UGCAUGU
B8 | 0.143 KA relative to UGCAUGU
B9 | 0.0855 KA relative to UGCAUGU
B10 | 0.0824 KA relative to UGCAUGU
B11 | 0.117 KA relative to UGCAUGU
B12 | 0.138 KA relative to UGCAUGU
B13 | 0.0751 KA relative to UGCAUGU
B14 | 0.156 KA relative to UGCAUGU
B15 | 0.07 KA relative to UGCAUGU
B16 | 0.124 KA relative to UGCAUGU

Binder | binding signal
B17 | 0.105 KA relative to UGCAUGU
B18 | 0.101 KA relative to UGCAUGU
B19 | 0.0855 KA relative to UGCAUGU
B20 | 0.0555 KA relative to UGCAUGU
B21 | 0.0976 KA relative to UGCAUGU
B22 | 0.199 KA relative to UGCAUGU
B23 | 0.136 KA relative to UGCAUGU
B24 | 0.0507 KA relative to UGCAUGU
B25 | 0.104 KA relative to UGCAUGU
B26 | 0.093 KA relative to UGCAUGU
B27 | 0.149 KA relative to UGCAUGU
B28 | 0.121 KA relative to UGCAUGU
B29 | 0.118 KA relative to UGCAUGU
B30 | 0.178 KA relative to UGCAUGU
B31 | 0.153 KA relative to UGCAUGU
